Measurements: PubChem BioAssay AID651820 (National Center for Advancing Translational Sciences (NCATS), 2012)
“And” between values parts separate entries of the source, which are not always exact repeats. Equal entries are not always repeated. In all, about 340,000 compounds went through this assay and about 12,000 (3.5%) were called active. This list was built around the results that the source calls inconclusive (neither active nor inactive); the mix of calls is not that of the screen. Calls follow the shape of the dose curve; as a rule, active = well fitted inhibition curve with a large enough effect; inconclusive = small, poorly fitted or top-dose-only effect, or another doubt; inactive = no such curve, though single readings can be large or run the other way. Potencies of inconclusive entries are left out as doubtful fits.

Assay: qHTS Assay for Inhibitors of Hepatitis C Virus (HCV)
Conditions: Huh7.5.1 HCVcc-Cre (HCVcc is cell-culture hepatitis C virus) infection, luciferase reporter, 44 h; activity change, negative = inhibition: at 41.8 µM (top of the series) unless noted
How it was run: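 Luciferase read-out (15 sec integration) after a 15 min room-temperature substrate step quantifies HCVcc-Cre infection. Cells, 1,000 per well, had compound added 4 h post-plating, then virus at ~0.5 moi, and were cultured 44 h.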
% is scaled to controls: 0 for no effect and ±100 for the full control effect; potency is read from the fitted curve at half-maximal effect; tags tell the direction and shape of the fitted curve.

Row | Compound | Potency | activity change, negative = inhibition
1 | CC(=O)c1ccc(NC(=O)c2ccc(N3CCCC3=O)cc2)cc1 | inconclusive [inhibitor, partial curve, poor fit] | –
2 | Cc1ccc(/C=N/n2c(-c3ccccc3)n[nH]c2=S)cc1 | – | inactive: 5.02%
3 | c1cnc2c(c1)ccc1cccnc12 | active: 11.2 µM and active: 8.91 µM | –
4 | NC(=O)c1ccsc1NC(=O)COC(=O)Cc1ccsc1 | – | inactive: 7.44%
5 | COc1ccc2[nH]cc(CCNC(=O)c3ccc([N+](=O)[O-])cc3)c2c1 | inconclusive [inhibitor, partial curve] | –
6 | CCO[C@@H]1OC(C(=O)N2CCCCCCC2)=C[C@H](C2CCCCC2)[C@H]1CCCO | inconclusive [inhibitor, single point] | –
7 | CC[n+]1ccccc1/C=C/c1ccc(N(C)C)cc1 | active: 4.47 µM | –
8 | Cc1ccc(CNC(=O)CCc2nnc(Cc3ccc(-c4ccccc4)cc3)o2)o1 | – | inactive: 9.32%
9 | CC(C)N(C(=O)[C@H]1CC(CC(=O)NCC23CC4CC(CC(C4)C2)C3)C(=O)N2CCc3c([nH]c4ccccc34)[C@]12C)C(C)C (stereo partly specified) | active: 3.16 µM | –
10 | Cc1ccn2c(=O)c(NC(=O)c3cccc4ccccc34)c(C)nc2c1 | inconclusive [inhibitor, partial curve] | –
11 | O=C(Cc1ccc2c(c1)OCCO2)Nc1ccc(Cl)c(S(=O)(=O)N2CCOCC2)c1 | inconclusive [inhibitor, single point] | –
12 | CC(Sc1nnc(-c2ccncc2)n1-c1ccc(F)cc1)C(=O)NC1CC1 (stereo unspecified) | – | inactive: -4.08%
13 | CCCCCCc1ccc(-c2ncc(N)cn2)cc1 | active: 5.62 µM | –
14 | COc1cccc(N2CCN(C3CC(=O)N(c4cccc(Cl)c4)C3=O)CC2)c1 (stereo unspecified) | – | inactive: 6.46%
15 | Cc1c(C(=O)Nc2nc(-c3ccccn3)cs2)oc2ccccc12 | active: 2.82 µM | –
16 | CCc1cc2c3c(c(=O)oc2cc1OC(C)C(=O)O)CCCC3 (stereo unspecified) | inconclusive [inhibitor, single point] | –
17 | CCOc1cccc(OCCOc2ccccc2[N+](=O)[O-])c1 | inconclusive [inhibitor, single point] | –
18 | COc1ccccc1OCCCn1cc(C(=O)C2CC2)c2ccccc21 | inconclusive [inhibitor, partial curve] | –
19 | CCCCCCC(O)(c1ccc(OC)cc1)C(CN1CCOCC1)c1ccccc1 (stereo unspecified) | inconclusive [inhibitor, single point] | –
20 | C(=C\c1ccccc1)/CSc1nc2ncccc2[nH]1 | – | inactive: -25.6%
21 | Cc1ccc2c(CSc3nc4nc(C)cc(C)n4n3)cc(=O)oc2c1 | – | inactive: -17.5%
